Results from the RNAGym collection of RNA variant scans (doi:10.7554/elife.90254).
Read counts are not given, so values of variants with three or more changes are uncertain.

B1: LINE1-full (parent)
chain: UACGUAGGUGGUUUUCCCCUGAUAGUGCUAAGGGGGCCUGGAAGUUUGGACUGGGCAGAGCUCAACACAGCGUGGCAAAGUGGCUGUGGCUAGACUGCCUCUCUGGAUUCCUCGUCACUCAGCAGGGCAUCUCUGAGAGAAAUGCC

Variants of: B1
Assay: self-cleavage, relative activity (ratio to wild type); higher = more cleavage; in vitro, sequencing; the parent is a self-cleaving ribozyme
A2G A77U A79G U96C U115C gave a self-cleavage of 0.57.
Work on U1C U13C G33U A107C yielded a self-cleavage of 1.25.
For U1C G4A G21A A117G, the self-cleavage was 1.41.
For U1C A65U U102C A121G A136G, the self-cleavage was 0.
U1C A117U A129G showed a self-cleavage of 1.3.
For U1C U26A A30G A50G U112C C113U A142G, the self-cleavage was 0.19.
U1C U39A U81A showed a self-cleavage of 1.38.
With U1C A64G A140G the self-cleavage was 0.07.
In the case of U1C U47A A50G A57G A129U G144A, the self-cleavage is reported as 0.42.
For A2G A77G A79U U115A A129U, the self-cleavage was 0.
In the case of U1C C90U A92U, the self-cleavage is reported as 0.07.
In the case of U1C U13C A30U G40U U52A A69U A138G, the self-cleavage is reported as 0.01.
With U1C A78G A94U A117C the self-cleavage was 0.33.
For U1C C113A A124G, the self-cleavage was 0.72.
A2G G7U U87A showed a self-cleavage of 0.02.
U1C A43G A136G gave a self-cleavage of 0.86.
Work on U1G A57G U102C yielded a self-cleavage of 0.
In the case of A2G U9A G11A A50U U112C, the self-cleavage is reported as 0.69.
In the case of U1C G8A A64G U73A U134C G137A, the self-cleavage is reported as 0.23.
With U1C A30G U39G C133A the self-cleavage was 0.84.
With U1C U15C A140G the self-cleavage was 0.97.
Variant A2G C3U U45C A140G has a self-cleavage of 1.36.
With U1C U73C A124U the self-cleavage was 1.31.
U1C A57G A117U gave a self-cleavage of 1.03.
U1C C3U A94U U119C showed a self-cleavage of 0.29.
A2G A77G U134A showed a self-cleavage of 1.23.
In the case of U1A U47G A64C U108C U143A, the self-cleavage is reported as 0.32.
With U1C U73C U119A C145A the self-cleavage was 0.98.
With U1A U62A U85C U100C the self-cleavage was 0.
Work on U1C U12G G139U yielded a self-cleavage of 0.6.
Work on A2G A43G U130C yielded a self-cleavage of 0.35.
A2G G44A U104A A117C gave a self-cleavage of 0.86.
In the case of U1C A117G U143C, the self-cleavage is reported as 2.87.
For A2G C84U U119C U134C, the self-cleavage was 0.67.
Variant U1C U15A A79G U143C G144A has a self-cleavage of 0.39.
Variant U1A U13C U20C U47C has a self-cleavage of 1.02.
Variant A2G A43G U134C has a self-cleavage of 0.33.
A2G A50U C120A showed a self-cleavage of 0.86.
A2G A30G C68A U112C A138G gave a self-cleavage of 0.38.
A2G A43G A121G A138U gave a self-cleavage of 1.7.
Variant U1C G35A G55A has a self-cleavage of 0.13.
U1A U20G U47C G49A A65G U130C A138U A142G showed a self-cleavage of 0.57.
In the case of U1C U14C A129U, the self-cleavage is reported as 0.72.
For U1A U81A U130C, the self-cleavage was 2.01.
Work on U1C A43G A77G G127A G137U yielded a self-cleavage of 1.46.
Work on U1C A59G U73C G126A yielded a self-cleavage of 0.
For A2G G72A A142G, the self-cleavage was 0.47.
U1C A79U U91A U112A A138G showed a self-cleavage of 0.53.
Variant U1C A6G A107G U115A U119C A138G has a self-cleavage of 0.
A2G A69G U109A gave a self-cleavage of 0.
For U1A C19U U104A A124U, the self-cleavage was 1.01.
U1C U5C U20A A129G A138C A141U showed a self-cleavage of 0.
U1A U73C U112A A129G gave a self-cleavage of 2.3.
Work on U1A A6G G25U U112G A142G yielded a self-cleavage of 0.47.
With U1C U9C G11A A57U A124G the self-cleavage was 0.11.
With U1A G8A A77U the self-cleavage was 0.69.
In the case of U1C A24U U112C U143C, the self-cleavage is reported as 0.69.
Work on U1C A50G A79G U102C yielded a self-cleavage of 2.12.
In the case of U1A C17U A121G U143C, the self-cleavage is reported as 1.31.
U1C U102C C133U gave a self-cleavage of 0.84.
Work on A2G C61U A67U yielded a self-cleavage of 0.07.
A2G G137U A140G U143A showed a self-cleavage of 2.15.
Work on U1C A30G U104C yielded a self-cleavage of 0.33.
For U1C A2G U85A U112C U143C G144A, the self-cleavage was 0.
For A2G A65U A69C, the self-cleavage was 0.
For U1C A136G U143C, the self-cleavage was 0.97.
Work on U1C G58U U134C yielded a self-cleavage of 0.23.
U1A U39A A65G A121U gave a self-cleavage of 0.26.
A2G G7A C98U gave a self-cleavage of 0.36.
In the case of U1C U20C C98U A142G, the self-cleavage is reported as 0.11.
Variant U1C U12G A124U has a self-cleavage of 0.53.
Work on A2C U13C A59U A141G yielded a self-cleavage of 0.31.
Work on U1C U26C U73A G122U yielded a self-cleavage of 1.18.
Work on U1A U115C U134G yielded a self-cleavage of 1.45.
Work on A2G A30U A65G C84G A136G A141U yielded a self-cleavage of 0.33.
In the case of U1C U12C A121G, the self-cleavage is reported as 0.94.
With U1C A31G U96A A138G the self-cleavage was 0.16.
With U1C U13C C17U C76A G106A the self-cleavage was 0.
Work on U1C A24G U47C A129U yielded a self-cleavage of 0.92.
In the case of A2G A50U A79G A121U, the self-cleavage is reported as 0.69.
A2G G35A C145U showed a self-cleavage of 0.35.
A2G A77U U85C G88C A94G A141C showed a self-cleavage of 0.
Variant U1C U12C A31G C51U has a self-cleavage of 1.17.
Work on U1C A6G U143C yielded a self-cleavage of 1.02.
